The other results are listed elsewhere or left out.
Key:
Experiment in all cases: glycan array binding signal (z-score within array); higher = stronger binding
Details in all cases: glycan notation: IUPAC condensed, linker removed
[1] = molecular target: GlcNAc6S(b1-3)Gal(b1-4)GlcNAc
Outline: (§1)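 Arrays were curated from the Consortium for Functional Glycomics database, 3228 in total, and kept only where the protein sequence was available. Binding is expressed as a within-array Z-score. This score was averaged across arrays of the same protein sequence at different concentrations or buffers and across linkers, and negative values can be read as non-binding.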

Kdn(a2-3)Gal(b1-3)GalNAc = molecular target: Kdn(a2-3)Gal(b1-3)GalNAc
Outline: as §1

Kdn(a2-3)Gal(b1-3)GlcNAc = molecular target: Kdn(a2-3)Gal(b1-3)GlcNAc
Outline: as §1

Kdn(a2-3)Gal(b1-4)Glc = molecular target: Kdn(a2-3)Gal(b1-4)Glc
Outline: as §1

Kdn(a2-3)Gal(b1-4)GlcNAc = molecular target: Kdn(a2-3)Gal(b1-4)GlcNAc
Outline: as §1

[2] = molecular target: Kdn(a2-3)Gal(b1-4)[Fuc(a1-3)]GlcNAc
Outline: as §1

Kdn(a2-6)Gal(b1-4)GlcNAc = molecular target: Kdn(a2-6)Gal(b1-4)GlcNAc
Outline: as §1

[3] = molecular target: Man(a1-2)Man(a1-2)Man(a1-3)Man
Outline: as §1

[4] = molecular target: Man(a1-2)Man(a1-2)Man(a1-6)[Man(a1-3)]Man
Outline: as §1

Man(a1-2)Man(a1-3)Man = molecular target: Man(a1-2)Man(a1-3)Man
Outline: as §1

[5] = molecular target: Man(a1-2)Man(a1-3)[Man(a1-2)Man(a1-6)]Man
Outline: as §1

[6] = molecular target: Man(a1-2)Man(a1-3)[Man(a1-2)Man(a1-6)]Man(a1-6)[Man(a1-2)Man(a1-2)Man(a1-3)]Man
Outline: as §1

[7] = molecular target: Man(a1-2)Man(a1-3)[Man(a1-2)Man(a1-6)]Man(a1-6)[Man(a1-2)Man(a1-2)Man(a1-3)]Man(b1-4)GlcNAc(b1-4)GlcNAc
Outline: as §1

[8] = molecular target: Man(a1-2)Man(a1-3)[Man(a1-6)]Man(a1-6)[Man(a1-2)Man(a1-3)]Man(b1-4)GlcNAc(b1-4)GlcNAc
Outline: as §1

[9] = molecular target: Man(a1-2)Man(a1-6)[Man(a1-3)]Man(a1-6)[Man(a1-2)Man(a1-2)Man(a1-3)]Man
Outline: as §1

[10] = molecular target: Man(a1-2)Man(a1-6)[Man(a1-3)]Man(a1-6)[Man(a1-2)Man(a1-2)Man(a1-3)]Man(b1-4)GlcNAc(b1-4)GlcNAc
Outline: as §1

Man(a1-3)[Man(a1-6)]Man = molecular target: Man(a1-3)[Man(a1-6)]Man
Outline: as §1

[11] = molecular target: Man(a1-3)[Man(a1-6)]Man(a1-6)[Man(a1-2)Man(a1-3)]Man(b1-4)GlcNAc(b1-4)GlcNAc
Outline: as §1

[12] = molecular target: Man(a1-3)[Man(a1-6)]Man(a1-6)[Man(a1-3)]Man
Outline: as §1

[13] = molecular target: Man(a1-3)[Man(a1-6)]Man(a1-6)[Man(a1-3)]Man(b1-4)GlcNAc(b1-4)GlcNAc
Outline: as §1

[14] = molecular target: Man(a1-3)[Man(a1-6)]Man(b1-4)GlcNAc(b1-4)GlcNAc
Outline: as §1

[15] = molecular target: Man(a1-3)[Man(a1-6)]Man(b1-4)GlcNAc(b1-4)[Fuc(a1-6)]GlcNAc
Outline: as §1

Man(a1-6)Man = molecular target: Man(a1-6)Man
Outline: as §1

Man(b1-4)GlcNAc = molecular target: Man(b1-4)GlcNAc
Outline: as §1

MurNAc(b1-4)GlcNAc = molecular target: MurNAc(b1-4)GlcNAc
Outline: as §1

Neu5Ac(a2-3)Gal = molecular target: Neu5Ac(a2-3)Gal
Outline: as §1

[16] = molecular target: Neu5Ac(a2-3)Gal(b1-3)GalNAc
Outline: as §1

[17] = molecular target: Neu5Ac(a2-3)Gal(b1-3)GalNAc(b1-3)Gal(a1-4)Gal(b1-4)Glc
Outline: as §1

[18] = molecular target: Neu5Ac(a2-3)Gal(b1-3)GalNAc(b1-3)Gal(b1-4)GlcNAc
Outline: as §1

[19] = molecular target: Neu5Ac(a2-3)Gal(b1-3)GalNAc(b1-4)[Neu5Ac(a2-3)]Gal(b1-4)Glc
Outline: as §1

[20] = molecular target: Neu5Ac(a2-3)Gal(b1-3)GalNAc(b1-4)[Neu5Ac(a2-8)Neu5Ac(a2-3)]Gal(b1-4)Glc
Outline: as §1

[21] = molecular target: Neu5Ac(a2-3)Gal(b1-3)GalNAc6S
Outline: as §1

[22] = molecular target: Neu5Ac(a2-3)Gal(b1-3)GlcNAc
Outline: as §1

[23] = molecular target: Neu5Ac(a2-3)Gal(b1-3)GlcNAc(b1-2)Man
Outline: as §1

[24] = molecular target: Neu5Ac(a2-3)Gal(b1-3)GlcNAc(b1-2)Man(a1-3)[GlcNAc(b1-4)][Neu5Ac(a2-3)Gal(b1-3)GlcNAc(b1-2)Man(a1-6)]Man(b1-4)GlcNAc(b1-4)GlcNAc
Outline: as §1

[25] = molecular target: Neu5Ac(a2-3)Gal(b1-3)GlcNAc(b1-2)Man(a1-3)[Neu5Ac(a2-3)Gal(b1-3)GlcNAc(b1-2)Man(a1-6)]Man(b1-4)GlcNAc(b1-4)GlcNAc
Outline: as §1

[26] = molecular target: Neu5Ac(a2-3)Gal(b1-3)GlcNAc(b1-3)Gal(b1-3)GlcNAc
Outline: as §1

[27] = molecular target: Neu5Ac(a2-3)Gal(b1-3)GlcNAc(b1-3)Gal(b1-4)GlcNAc
Outline: as §1

[28] = molecular target: Neu5Ac(a2-3)Gal(b1-3)GlcNAc(b1-3)GalNAc
Outline: as §1

[29] = molecular target: Neu5Ac(a2-3)Gal(b1-3)GlcNAc(b1-4)Gal(b1-4)Glc
Outline: as §1

[30] = molecular target: Neu5Ac(a2-3)Gal(b1-3)GlcNAc(b1-6)GalNAc
Outline: as §1

[31] = molecular target: Neu5Ac(a2-3)Gal(b1-3)GlcNAc6S
Outline: as §1

[32] = molecular target: Neu5Ac(a2-3)Gal(b1-3)[Fuc(a1-4)]GlcNAc
Outline: as §1

[33] = molecular target: Neu5Ac(a2-3)Gal(b1-3)[Fuc(a1-4)]GlcNAc(b1-3)Gal(b1-3)[Fuc(a1-4)]GlcNAc
Outline: as §1

[34] = molecular target: Neu5Ac(a2-3)Gal(b1-3)[Fuc(a1-4)]GlcNAc(b1-3)Gal(b1-4)[Fuc(a1-3)]GlcNAc
Outline: as §1

B1: MAA (Maackia amurensis), P0DKL3 (protein)
chain: MATSNSKPTQVLLATFLTFFFLLLNNVNSSDELSFTINNFVPNEADLLFQGEASVSSTGVLQLTRVENGQPQKYSVGRALYAAPVRIWDNTTGSVASFSTSFTFVVKAPNPDITSDGLAFYLAPPDSQIPSGSVSKYLGLFNNSNSDSSNQIVAVELDTYFAHSYDPWDPNYRHIGIDVNGIESIKTVQWDWINGGVAFATITYLAPNKTLIASLVYPSNQTTFSVAASVDLKEILPEWVRVGFSAATGYPTEVETHDVLSWSFTSTLEANCDAATENNVHIARYTA
Question: With B1 as the binder, how does the “glycan array binding signal (z-score)” value [1] read?
Answer: The value was -0.188.

Question: What about the “glycan array binding signal (z-score)” value (Kdn(a2-3)Gal(b1-3)GalNAc) of the same binder?
Answer: Its value is -0.116.

Question: And the “glycan array binding signal (z-score)” value (Kdn(a2-3)Gal(b1-3)GlcNAc)?
Answer: The value was -0.221.

Question: What about the “glycan array binding signal (z-score)” value (Kdn(a2-3)Gal(b1-4)Glc) of the same binder?
Answer: The value was -0.117.

Question: And the “glycan array binding signal (z-score)” value (Kdn(a2-3)Gal(b1-4)GlcNAc)?
Answer: The value was 0.436.

Question: What about the “glycan array binding signal (z-score)” value [2] of the same binder?
Answer: Its value is -0.082.

Question: And the “glycan array binding signal (z-score)” value (Kdn(a2-6)Gal(b1-4)GlcNAc)?
Answer: Its value is -0.144.

Question: And the “glycan array binding signal (z-score)” value [3]?
Answer: Its value is -0.188.

Question: And the “glycan array binding signal (z-score)” value [4]?
Answer: The value was -0.236.

Question: And the “glycan array binding signal (z-score)” value (Man(a1-2)Man(a1-3)Man)?
Answer: The value was -0.178.

Question: And the “glycan array binding signal (z-score)” value [5]?
Answer: The value was -0.14.

Question: What about the “glycan array binding signal (z-score)” value [6] of the same binder?
Answer: Its value is -0.18.

Question: And the “glycan array binding signal (z-score)” value [7]?
Answer: Its value is -0.107.

Question: And the “glycan array binding signal (z-score)” value [8]?
Answer: Its value is -0.2.

Question: What about the “glycan array binding signal (z-score)” value [9] of the same binder?
Answer: The value was -0.191.

Question: And the “glycan array binding signal (z-score)” value [10]?
Answer: The value was -0.26.

Question: And the “glycan array binding signal (z-score)” value (Man(a1-3)[Man(a1-6)]Man)?
Answer: The value was -0.223.

Question: What about the “glycan array binding signal (z-score)” value [11] of the same binder?
Answer: Its value is 0.015.

Question: And the “glycan array binding signal (z-score)” value [12]?
Answer: The value was -0.174.

Question: And the “glycan array binding signal (z-score)” value [13]?
Answer: The value was -0.208.

Question: And the “glycan array binding signal (z-score)” value [14]?
Answer: The value was -0.056.

Question: What about the “glycan array binding signal (z-score)” value [15] of the same binder?
Answer: The value was -0.266.

Question: And the “glycan array binding signal (z-score)” value (Man(a1-6)Man)?
Answer: The value was -0.166.

Question: And the “glycan array binding signal (z-score)” value (Man(b1-4)GlcNAc)?
Answer: Its value is -0.263.

Question: And the “glycan array binding signal (z-score)” value (MurNAc(b1-4)GlcNAc)?
Answer: Its value is -0.139.

Question: What about the “glycan array binding signal (z-score)” value (Neu5Ac(a2-3)Gal) of the same binder?
Answer: The value was -0.23.

Question: What about the “glycan array binding signal (z-score)” value [16] of the same binder?
Answer: Its value is -0.27.

Question: And the “glycan array binding signal (z-score)” value [17]?
Answer: The value was -0.217.

Question: And the “glycan array binding signal (z-score)” value [18]?
Answer: The value was -0.244.

Question: And the “glycan array binding signal (z-score)” value [19]?
Answer: Its value is -0.258.

Question: And the “glycan array binding signal (z-score)” value [20]?
Answer: The value was -0.163.

Question: What about the “glycan array binding signal (z-score)” value [21] of the same binder?
Answer: Its value is -0.26.

Question: What about the “glycan array binding signal (z-score)” value [22] of the same binder?
Answer: The value was -0.244.

Question: What about the “glycan array binding signal (z-score)” value [23] of the same binder?
Answer: Its value is -0.025.

Question: And the “glycan array binding signal (z-score)” value [24]?
Answer: The value was -0.213.

Question: And the “glycan array binding signal (z-score)” value [25]?
Answer: The value was -0.016.

Question: What about the “glycan array binding signal (z-score)” value [26] of the same binder?
Answer: The value was -0.173.

Question: And the “glycan array binding signal (z-score)” value [27]?
Answer: The value was -0.264.

Question: And the “glycan array binding signal (z-score)” value [28]?
Answer: Its value is -0.138.

Question: What about the “glycan array binding signal (z-score)” value [29] of the same binder?
Answer: Its value is -0.175.

Question: And the “glycan array binding signal (z-score)” value [30]?
Answer: Its value is -0.183.

Question: And the “glycan array binding signal (z-score)” value [31]?
Answer: Its value is -0.161.

Question: What about the “glycan array binding signal (z-score)” value [32] of the same binder?
Answer: The value was -0.219.

Question: And the “glycan array binding signal (z-score)” value [33]?
Answer: Its value is -0.21.

Question: What about the “glycan array binding signal (z-score)” value [34] of the same binder?
Answer: The value was -0.225.

Reference: the supplement of paper PMC8728848
